The results in this text go back to article PMC6919601, “Identification of Plasmodium dipeptidyl aminopeptidase allosteric inhibitors by high throughput screening” (PLoS ONE, 2019).

Molecules are shown by their SMILES. About 230 (0.21%) of roughly 110,000 compounds showed an effect of 50% or more. Some of the results follow.
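Note: 30 min substrate incubation versus DMSO and 10 µM JCP410 controls.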

Sequence of DPAP1 (Q8IIJ9 whole entry, looked up): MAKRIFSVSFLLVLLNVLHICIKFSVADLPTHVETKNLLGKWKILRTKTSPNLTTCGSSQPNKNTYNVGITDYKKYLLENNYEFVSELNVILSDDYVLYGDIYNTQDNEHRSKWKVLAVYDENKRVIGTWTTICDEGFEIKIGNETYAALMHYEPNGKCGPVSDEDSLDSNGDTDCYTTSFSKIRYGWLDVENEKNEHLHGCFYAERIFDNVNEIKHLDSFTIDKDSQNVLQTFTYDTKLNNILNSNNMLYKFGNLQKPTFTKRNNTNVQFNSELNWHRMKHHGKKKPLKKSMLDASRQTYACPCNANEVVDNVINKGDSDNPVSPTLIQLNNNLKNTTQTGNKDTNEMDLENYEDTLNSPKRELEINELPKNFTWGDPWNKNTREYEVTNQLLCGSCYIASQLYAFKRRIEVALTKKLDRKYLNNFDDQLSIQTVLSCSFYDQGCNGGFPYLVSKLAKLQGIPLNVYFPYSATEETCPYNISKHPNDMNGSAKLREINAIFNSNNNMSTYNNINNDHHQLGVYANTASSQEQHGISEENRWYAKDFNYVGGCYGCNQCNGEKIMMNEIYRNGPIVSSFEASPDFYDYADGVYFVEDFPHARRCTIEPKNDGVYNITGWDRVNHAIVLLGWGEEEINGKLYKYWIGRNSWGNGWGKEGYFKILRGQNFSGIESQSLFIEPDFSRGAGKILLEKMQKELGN

This experiment has as its target DPAP1 (Plasmodium falciparum, UniProt Q8IIJ9). Nature of the experiment: primary screen, percent inhibition; read by cleavage of a fluorogenic dipeptide substrate; higher = more effect of the substance. Details: species or system P. falciparum D10 trophozoite lysates; single well.
For the compound `CCOc1ccc(CNc2ccc(F)c(Cl)c2)cc1`, the “% Inhibition @ 10 uM” value came out at 4.55%.
On to `CCOC(=O)c1[nH]c2ccccc2c1NC(=O)CSCc1ccccc1`, for which the “% Inhibition @ 10 uM” value is on record as 1.5%.
As for `CCc1ccccc1NC(=O)c1cccnc1Cl`, the “% Inhibition @ 10 uM” value worked out at 2.43%.
Turning to `Brc1ccc(OCc2nnnn2-c2ccccc2)cc1`, the “% Inhibition @ 10 uM” value is -1.11%.
With `O=C1/C(=C/c2cccs2)CS/C1=C/c1cccs1`, the “% Inhibition @ 10 uM” value was -3.21%.
The figure for `CCCCN(C)CCNC(=O)c1cc2cc3ccc(C)cc3nc2o1` is -1.54%.
For `CC(C)(C)NS(=O)(=O)c1ccc(OCC(=O)Nc2ccc3c(c2)OCCO3)cc1`, the “% Inhibition @ 10 uM” value is -2.09%.
For `CCOC(=O)N1CCN(S(=O)(=O)c2ccc(Br)c(OCC)c2)CC1`, the “% Inhibition @ 10 uM” value is reported as -1.51%.
With `Cc1ccc2nc(C)cc(NC3CCCCC3)c2c1`, the “% Inhibition @ 10 uM” value is given as -5.01%.
Regarding `CC(Oc1ccc(Cl)cc1Cl)C(=O)O/N=C(\N)c1cccnc1` (stereo not shown), the “% Inhibition @ 10 uM” value was -6.86%.
Consider `COc1ccc(S(=O)(=O)N(C)CC(=O)Nc2ccc3c(c2)OCCO3)cc1`, for which the “% Inhibition @ 10 uM” value was 0.873%.
As to `O=C(O)c1cnc2ccc(Br)cc2c1O`, the “% Inhibition @ 10 uM” value stood at 0.51%.
Take `N#Cc1c(N)n(-c2ccccc2)c2nc3ccccc3nc12`: the “% Inhibition @ 10 uM” value is listed as -5.5%.
The figure for `Cc1cc2nc(C)n(CCCNC(=O)NC34C[C@H]5C[C@@H](C3)C[C@@H](C4)C5)c2cc1C` is -0.551%; for `Cc1cc(S(=O)(=O)c2cc3ccccc3oc2=O)ccc1F` it is -3.1%; for `Fc1ccccc1-c1nc(N2CCN(Cc3ccccc3)CC2)c2ccccc2n1` it is 1.86%.
Consider `CCCc1nc2nc(C)cc(NCc3ccccc3Cl)n2n1`, for which the “% Inhibition @ 10 uM” value amounted to 3%.
Regarding `CC(=O)c1cccc(NC(=O)C2CC2(c2ccccc2)c2ccccc2)c1` (stereo not shown), the “% Inhibition @ 10 uM” value was -0.872%.
For the compound `COc1ccc(OC)c(S(=O)(=O)N2CCC(C)CC2)c1`, the “% Inhibition @ 10 uM” value turned out to be 2.72%.
`CC(=O)N1c2ccccc2C(C)(c2ccccc2)CC1(C)C` (stereo not shown): the “% Inhibition @ 10 uM” value is listed as 0.132%.
As for `COc1cccc2c1ncc1c(C)nn(-c3ccc(F)cc3)c12`, the “% Inhibition @ 10 uM” value is -9.23%.
Consider `O=C1c2ccccc2C(=O)N1CN(C(=O)C(F)(F)F)c1ccc(Br)cc1`, for which the “% Inhibition @ 10 uM” value is -7.31%.
As for `CC(C)OCCCNC(=O)Cn1nc(-c2ccccc2)ccc1=O`, the figure is -2.99%.
For the compound `COc1ccc(-c2cn3cc(-c4ccc(C)cc4)n(C)c3n2)cc1`, the “% Inhibition @ 10 uM” value is reported as 3.93%.
Regarding `Cc1cccc2[nH]ncc12`, the “% Inhibition @ 10 uM” value is recorded as -5.32%.
For `O=C(O)CNS(=O)(=O)c1ccc2c(c1)C(=O)c1cc(S(=O)(=O)NCC(=O)O)ccc1-2`, the “% Inhibition @ 10 uM” value worked out at 1.97%.
On to `CCOc1ccc(NC(=O)c2ccc(CNS(=O)(=O)c3cccc(Cl)c3)cc2)cc1`, for which the “% Inhibition @ 10 uM” value amounted to 3.65%.
As to `NS(=O)(=O)c1ccc(NC(=O)CCSc2nc(O)c3c4c(sc3n2)CCC4)cc1`, the “% Inhibition @ 10 uM” value was 7.1%.
On to `COc1ccc(NC(=O)COc2ccc(S(=O)(=O)NC3CCCCC3)cc2)cc1`, for which the “% Inhibition @ 10 uM” value is on record as -3.77%.
With `Cc1cccn2c(=O)c3cc(C(=O)NC4CCCCC4)n(C)c3nc12`, the “% Inhibition @ 10 uM” value amounted to 9.56%.
`O=C1c2ccccc2C(=O)N1CCSC(=S)N1CCOCC1`: the “% Inhibition @ 10 uM” value is recorded as -3.72%.
For the compound `O=C(Nc1nccs1)c1cc(-c2ccc3c(c2)OCO3)nc2ccccc12`, the “% Inhibition @ 10 uM” value was -8.28%.
In the case of `CCc1c(C#N)c(SCc2c(C)noc2C)nc2c1C(=O)CC(C)(C)C2`, the “% Inhibition @ 10 uM” value is listed as -6.51%.
`CC1=C(C#N)C(c2ccc(OCc3ccccc3)cc2)C2=C(O)CC(C)(C)CC2=N1` (stereo not shown): the “% Inhibition @ 10 uM” value was 2.44%.
Consider `COc1ccc(C(=O)CSc2nnc(C3COc4ccccc4O3)n2-c2ccccc2)cc1OC` (stereo not shown), for which the “% Inhibition @ 10 uM” value is given as -1.85%.
As for `CCN(CC)CC#CC(O)c1ccccc1` (stereo not shown), the figure is -3.26%.
Turning to `COc1ccc(CNS(=O)(=O)c2ccc(OCC(C)C)cc2)cc1`, the “% Inhibition @ 10 uM” value was -2.44%.
For `Cc1cc(C)cc(-n2c(C)cc(/C=C3/NC(=O)N(Cc4ccccc4F)C3=O)c2C)c1`, the “% Inhibition @ 10 uM” value is -0.0626%.
For the compound `NC1=NC(c2ccccc2Cl)n2c(nc3ccccc32)N1` (stereo not shown), the “% Inhibition @ 10 uM” value is reported as -5%.
With `Cc1ccc(C(=O)Nc2ccn(Cc3ccc(F)cc3)n2)o1`, the “% Inhibition @ 10 uM” value is -3.26%.
On to `CN1CCc2c(sc3c2C(=O)NC(c2ccc(-c4ccc(Cl)c(Cl)c4)o2)N3)C1` (stereo not shown), for which the “% Inhibition @ 10 uM” value is reported as -0.142%.
The figure for `CCOc1ccc(C2C(C#N)=C(N)Oc3c2ccc(=O)c2c(C)oc(C)c32)cc1` (stereo not shown) is 0.778%; for `CC1(C)NC(=O)N(CC(O)COc2ccccc2-c2ccccc2)C1=O` (stereo not shown) it is 0.275%.
As to `Cc1ccc2c(c1)C1CN(C)CCC1N2C(=O)C(C)C` (stereo not shown), the “% Inhibition @ 10 uM” value is recorded as -1.98%.
As for `Cc1ccc(C(=O)Nc2sc3c(c2C(=O)NCCO)CCC(C(C)(C)C)C3)cc1` (stereo not shown), the figure is 11.6%.
Regarding `O=C(COCc1cc(-c2ccc(F)cc2)on1)N1CCOCC1`, the “% Inhibition @ 10 uM” value came to 0.44%.
As for `COc1ccc(NC=C(C(=O)Nc2ccccc2C)C(=O)Nc2ccccc2C)cc1`, the figure is -6.33%.
As to `CN1C(N)=NC(=O)/C1=C/c1ccc(Cl)cc1Cl`, the “% Inhibition @ 10 uM” value stood at 5.75%.
As for `COc1ccc(-c2noc(N3CCC(C(=O)N4CCN(Cc5ccccc5)CC4)CC3)n2)cc1`, the figure is -5.66%.
For `Cc1ccc(C)c(OCc2cc(=O)n3oc(C)cc3n2)c1`, the “% Inhibition @ 10 uM” value was determined as 4.09%.
The figure for `Cc1cc(C)n(-c2ncc(-c3ccc(Br)cc3)s2)n1` is -3.92%; for `Cc1ccc(-n2c3c(c(=O)[nH]c2=O)C(C(F)(F)F)(C(F)(F)F)NC(c2cccnc2)=N3)cc1` it is -0.173%.
Regarding `Cc1ccc(S(=O)(=O)Nc2cccc(-c3cn4ccsc4n3)c2)c(C)c1`, the “% Inhibition @ 10 uM” value was 0.777%.
In the case of `O=C(CSc1nc[nH]n1)Nc1ccccn1`, the “% Inhibition @ 10 uM” value was found to be 1.76%.
As for `Cc1ccc2c3c(ccc2n1)N=C1CCCC(O)=C1C3c1ccc(F)cc1` (stereo not shown), the “% Inhibition @ 10 uM” value is on record as -6.58%.
With `COc1ccc(-c2c(NCCc3ccc(C)cc3)c(=O)c2=O)cc1`, the “% Inhibition @ 10 uM” value is reported as -4.99%.
On to `Cc1ccccc1C(=O)Nc1nnc(-c2ccccc2Cl)s1`, for which the “% Inhibition @ 10 uM” value is listed as 5.94%.
In the case of `CNC(=O)C12CCC(C)(c3nc4cc(C)c(C)cc4nc31)C2(C)C` (stereo not shown), the “% Inhibition @ 10 uM” value is -1.61%.
As for `CCN(CC)CCCNC(=O)C1CCCN(c2nnc(C)c3c(C)n(-c4ccccc4)nc23)C1` (stereo not shown), the figure is 6.62%; as for `Cc1ccccc1C(=O)O/N=C(\N)c1ccncc1`, 3.87%.
For the compound `Cc1cn2c3ccccc3n(N)c2n1`, the “% Inhibition @ 10 uM” value was -2.92%.
As for `CC1CCC(NC(=O)Cn2ccc3cc(S(=O)(=O)N4CCCC4)ccc32)CC1` (stereo not shown), the “% Inhibition @ 10 uM” value turned out to be 6.57%.
Turning to `CC1(C)CC(=O)C(CC(=O)c2ccc(Cl)cc2)=C(O)C1`, the “% Inhibition @ 10 uM” value was 5.13%.
For the compound `COc1ccc(C(=O)Nc2nc(-c3nnn(-c4ccc(C)c(C)c4)c3C)ns2)cc1`, the “% Inhibition @ 10 uM” value is recorded as -1.38%.
As for `CC(C)(C)c1ccc(C(=O)Nc2cc(C(N)=O)cc(C(N)=O)c2)cc1`, the “% Inhibition @ 10 uM” value is listed as -1.54%.
Turning to `CCC(C)NC(=O)C1=C(C)C(=O)OC12CCCCCC2` (stereo not shown), the “% Inhibition @ 10 uM” value is -5.21%.
In the case of `CSc1ccc(CN2CCN(C(=O)CC(C)C)CC2)cc1`, the “% Inhibition @ 10 uM” value is listed as 4.55%.
On to `COCc1cc(C)nc2sc3c(c12)NC(c1ccc(O)cc1)N(Cc1ccco1)C3=O` (stereo not shown), for which the “% Inhibition @ 10 uM” value is listed as 4.13%.
As to `Oc1ccc(-c2ccc(F)c(F)c2)nn1`, the “% Inhibition @ 10 uM” value is on record as -2.84%.
Take `COc1cc(NC(=O)c2ccc(C(C)(C)C)cc2)ccc1NC(=O)c1ccco1`: the “% Inhibition @ 10 uM” value is recorded as -0.511%.
Take `CCOC(=O)c1cc(S(=O)(=O)N2CC=C(c3ccccc3)CC2)cn1C`: the “% Inhibition @ 10 uM” value worked out at 3.92%.
For the compound `Cc1nc2c(C(=O)N3CCC4(CC3)OCCO4)cnn2c(O)c1Cc1ccccc1Cl`, the “% Inhibition @ 10 uM” value is -5.92%.
As for `CCC(Sc1nnc(C)n2c1cc1oc(C)cc12)C(=O)N1CCOCC1` (stereo not shown), the figure is -2.26%; as for `O=c1c2ccccc2nc2ccc(SCc3ccccc3)nn12`, 1.57%; as for `CCOc1ccc(CNCCCSc2nnnn2-c2ccccc2)cc1`, -4.71%.
As for `CCCN(CCC)C/C(=N/O)C(=O)Nc1ccccc1`, the figure is -3.98%; as for `COc1ccc(Br)cc1CN1CCC(Cc2ccccc2)CC1`, -4.5%.
Take `COc1ccc(-c2noc(CSc3nnc(CCc4ccccc4)n3C)n2)cc1`: the “% Inhibition @ 10 uM” value is given as -0.45%.
Consider `CCCCn1c(=O)c(C(=O)Nc2ccc(C)cc2)c(O)c2ccccc21`, for which the “% Inhibition @ 10 uM” value stood at 2.93%.
Turning to `CC1CCC(NC(=O)CCn2ccc3cc(S(=O)(=O)N4CCCC4)ccc32)CC1` (stereo not shown), the “% Inhibition @ 10 uM” value worked out at 5.14%.
For `CCOC(=O)c1c(S(=O)(=O)N2CCN(C)CC2)c(C)n(C)c1C`, the “% Inhibition @ 10 uM” value is recorded as 1.32%.
In the case of `O=C(CN1Cc2ccccc2C1=O)N1CC=C(c2ccccc2)CC1`, the “% Inhibition @ 10 uM” value is -3.85%.
Take `FC(F)(F)c1cccc(-n2cccc2)c1`: the “% Inhibition @ 10 uM” value is reported as 1.03%.
In the case of `O=C(O)C1C2C=CC(C2)C1C(=O)Nc1ccc(Oc2ccccc2)cc1` (stereo not shown), the “% Inhibition @ 10 uM” value came out at 6.61%.
As for `CCc1c(C#N)c(N)nc(SCC(=O)c2ccc(C)cc2)c1C#N`, the figure is 4.12%; as for `Cc1ccc(F)cc1N1C(=O)c2nc(C)c(C)nc2C1=O`, 6.79%.
Regarding `Cc1cc(C)c(S(=O)(=O)Nc2cc(Cl)cc(Cl)c2)c(C)c1`, the “% Inhibition @ 10 uM” value is listed as -4.4%.
As for `CC(=O)c1c(C(C)=O)c(C)n(-c2ccc(C)cc2)c1C`, the “% Inhibition @ 10 uM” value amounted to 1.57%.
As for `N#CC1=C(N)OC2=C(C(=O)CC(c3ccccc3)C2)C12C(=O)Nc1ccc(Br)cc12` (stereo not shown), the figure is 5.29%.
The figure for `Cc1ccc(Cn2c(SCC(C)C)nc3c2c(=O)[nH]c(=O)n3C)cc1` is -0.25%; for `O=C(OCc1ccccc1)N1CN(CCO)Cc2c1oc1ccccc1c2=O` it is -7.45%; for `COCc1nc2ccccc2n1CCOc1ccc(C(C)(C)C)cc1` it is -4.65%.
For `Cc1ccc(-c2csc(NS(=O)(=O)c3ccc(C)cc3)n2)cc1`, the “% Inhibition @ 10 uM” value was -0.132%.
Consider `COc1cccc(CN2CCN(Cc3ccc(Br)cc3)CC2)c1OC`, for which the “% Inhibition @ 10 uM” value is -3.37%.
As for `CCN(c1ccccc1)S(=O)(=O)c1ccc(NC(=O)Nc2ccc(Cl)cc2)cc1`, the figure is -9.59%.
For the compound `COc1cc(OC)c(CN2CC3(C)CC2CC(C)(C)C3)cc1Br` (stereo not shown), the “% Inhibition @ 10 uM” value came out at 4.9%.
As for `Cc1ccsc1C(C#N)NC(=O)[C@@H](NC(=O)OCc1ccccc1)C1CCCC1` (stereo partly shown), the figure is -4.72%; as for `CC(C)c1ccc(CN2CCN(c3ccc(F)cc3)CC2)cc1`, -1.77%; as for `COc1ccc(/C=C/C(=O)NC(=S)Nc2sc3c(c2C#N)CCCC3)cc1OC`, 15.2%.
As for `N#Cc1cc2c(nc1SCC(=O)NC1CC1)C1CCN2CC1`, the “% Inhibition @ 10 uM” value is -6.65%.
